Measurements as given in publication PMC4336329 (PLoS ONE, 2015).
The whole screen tested about 310,000 compounds, of which about 2,200 (0.71%) showed an effect of 50% or more. Effects have a minus sign here. The list shows a part of the results.

molecular target: human ether-à-go-go-related gene (hERG) potassium channel (human, UniProt Q12809); test: primary screen, population patch clamp on CHO cells stably expressing hERG
Sequence (Q12809 whole entry, looked up): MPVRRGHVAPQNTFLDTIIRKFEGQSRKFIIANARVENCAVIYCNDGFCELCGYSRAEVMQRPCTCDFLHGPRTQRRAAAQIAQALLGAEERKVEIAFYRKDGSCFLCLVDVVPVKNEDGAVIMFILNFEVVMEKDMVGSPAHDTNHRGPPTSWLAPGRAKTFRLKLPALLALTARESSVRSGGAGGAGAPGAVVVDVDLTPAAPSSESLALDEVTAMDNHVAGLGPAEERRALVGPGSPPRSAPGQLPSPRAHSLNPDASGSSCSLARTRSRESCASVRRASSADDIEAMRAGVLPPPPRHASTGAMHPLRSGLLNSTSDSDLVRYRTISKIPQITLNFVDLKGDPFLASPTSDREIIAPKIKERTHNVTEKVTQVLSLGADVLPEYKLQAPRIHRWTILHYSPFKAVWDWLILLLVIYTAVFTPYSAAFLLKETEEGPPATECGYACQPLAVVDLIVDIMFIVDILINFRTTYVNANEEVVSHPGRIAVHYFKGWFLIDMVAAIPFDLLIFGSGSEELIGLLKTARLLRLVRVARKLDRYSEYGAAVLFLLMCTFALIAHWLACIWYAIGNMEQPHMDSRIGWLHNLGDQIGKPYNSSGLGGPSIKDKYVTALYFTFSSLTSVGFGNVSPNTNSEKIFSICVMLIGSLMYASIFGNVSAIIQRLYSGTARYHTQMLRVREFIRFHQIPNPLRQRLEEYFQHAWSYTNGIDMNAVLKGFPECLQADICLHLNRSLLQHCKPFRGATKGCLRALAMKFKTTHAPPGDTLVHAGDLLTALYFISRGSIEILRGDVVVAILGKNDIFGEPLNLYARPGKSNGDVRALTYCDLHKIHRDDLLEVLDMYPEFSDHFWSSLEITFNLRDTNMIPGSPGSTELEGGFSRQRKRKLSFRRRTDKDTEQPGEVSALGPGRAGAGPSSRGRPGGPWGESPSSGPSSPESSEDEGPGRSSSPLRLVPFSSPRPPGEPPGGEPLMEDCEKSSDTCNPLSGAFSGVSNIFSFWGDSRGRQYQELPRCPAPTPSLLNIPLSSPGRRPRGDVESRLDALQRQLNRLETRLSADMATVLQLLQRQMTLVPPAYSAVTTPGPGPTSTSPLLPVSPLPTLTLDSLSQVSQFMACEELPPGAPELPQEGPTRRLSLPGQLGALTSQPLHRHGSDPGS

| SMILES | hERG current change (%, negative = inhibition) at 1uM [%] |
| --- | --- |
| Cc1ccc(NC(=O)CSc2cn[nH]n2)cc1 | 11.5 |
| O=C(Nc1ccc(NC(=O)c2cccs2)cc1)c1ccccc1 | 14.5 |
| CCCOc1ccccc1C1CC(=O)Nc2cc3c(cc21)OCO3 (stereo not drawn) | 7.2 |
| O=C(C1CCCCN1S(=O)(=O)c1ccccc1[N+](=O)[O-])N1CCOCC1 (stereo not drawn) | 3.29 |
| Cc1cccc(NC(=S)NCc2ccccc2Cl)c1C | 10.4 |
| CCCSc1nc2c(c(=O)[nH]c(=O)n2C)n1CCc1ccccc1 | 9.48 |
| CCCCOc1ccc(C2C(C(=O)c3ccc(C)o3)=C(O)C(=O)N2CC2CCCO2)cc1 (stereo not drawn) | 8.28 |
| CCC(=O)N(Cc1cc(=O)[nH]c2ccccc12)c1ccc(C)cc1C | 3.68 |
| Cc1cc(NC(=O)Cn2nc(C(F)(F)F)c3c2CCC3)n(-c2ccccc2)n1 | -5.4 |
| Cc1ccc2c(c1)C(=O)CC1(CCCCCC1)O2 | 14.4 |
| CCc1c(C)nc2nc(SCc3ccccc3Cl)[nH]n2c1=O | 14.7 |
| CC(=O)C1=C(O)C(=O)N(c2ccc(S(=O)(=O)Nc3nccs3)cc2)C1c1ccc(F)cc1 (stereo not drawn) | 17.1 |
| O=C1CC2(CCN(C(=O)c3ccccc3Br)CC2)Oc2ccccc21 | -51.4 |
| COc1ccccc1Nc1ncnc2c1c(C)c(C)n2CCCN(C)C | 6.99 |
| CCN(CC)CCNC(=O)Cn1cnc2sc(C)c(S(=O)(=O)N3CCC(C)CC3)c2c1=O | 17.3 |
| O=C(NCc1ccc2c(c1)OCO2)c1ccc(NS(=O)(=O)c2ccc3c(c2)OCCO3)cc1 | 17.7 |
| S=C(Nc1ccc(Cl)cc1)c1nc2ccccc2s1 | 7.27 |
| Cc1cc(C)cc(-n2ncc3c2CCCC3NC(=O)CN2CCCCC2=O)c1 (stereo not drawn) | 12.2 |
| COc1ccc(N2CCN(C(=O)NCc3cccc(OC)c3)CC2)cc1 | 13.3 |
| CC1CCCN(C(=O)c2cc3c(=O)n4ccccc4nc3s2)C1 (stereo not drawn) | 11.6 |
| COC(=O)c1nc2n(n1)C(c1ccc([N+](=O)[O-])cc1)C(C(=O)Nc1ccc(Cl)cc1)=C(C)N2 (stereo not drawn) | 19.1 |

| SMILES | hERG current change (%, negative = inhibition) at 1uM [%] |
| --- | --- |
| COC(=O)c1ccc(CSc2nc(-c3ccco3)cc(C(F)(F)F)n2)o1 | -17.8 |
| O=C(CCC(=O)Nc1ccc(F)cc1)N/N=C/c1ccncc1 | 13.2 |
| COc1ccc(Cc2nnc(NC(=O)CS(=O)(=O)Cc3ccccc3)s2)cc1 | 18.5 |
| CC(=O)N1CCc2cc(S(=O)(=O)NCCC(=O)Nc3cc(C)cc(C)c3)ccc21 | 10.1 |
| COc1cccc(C(=O)Nc2nnc(S(=O)(=O)N(C)Cc3ccc(F)cc3)s2)c1 | 9.39 |
| COc1ccc(C(=O)Nc2ccc(N3CCN(Cc4ccccc4)CC3)cc2)cc1 | 4.76 |
| CC(C)=CCC/C(C)=C/CC/C(C)=N/O | -5.72 |
| Cc1ccc(C2/C(=C(/O)c3cnn(-c4ccccc4)c3C)C(=O)C(=O)N2CCCN2CCOCC2)o1 (stereo not drawn) | 12 |
| O=C1C(=O)c2ccccc2C(O)=C1C1CCC(c2ccc(Cl)cc2)CC1 (stereo not drawn) | 12.3 |
| CCn1c(=O)cc(OCC(=O)O)c2ccccc21 | 12.9 |
| C[C@@H](C(=O)O)[C@@H]1C[C@@]1(C)[C@@H](NC(=O)OCc1ccccc1)c1ccccc1 | 14.7 |
| COc1ccccc1N1CCN(C2CCN(C(=O)c3ccc(F)cc3)CC2)CC1 | -19.6 |
| C#CCNC(=O)C1=C[C@H](C)[C@@H](CCCO)[C@H](OCC)O1 | 15.3 |
| Cc1cc(Br)c2c(c1)/C(=C/C(=O)c1cccs1)C(=O)N2 | 12.4 |
| Cc1ccccc1C(=O)O/N=C/c1c(N2CCOCC2)n(C)c2ccccc12 | 9.98 |
| Cc1cc(C)cc(C(=O)NCC(=O)OCC(=O)N2c3ccccc3NC(=O)C2(C)C)c1 | 4.41 |
| O=C(CO/N=C/c1ccc(Cl)cc1Cl)NNC(=O)c1ccc(Cl)cc1Cl | 10.8 |
| Br.Nc1nc(-c2ccc(Br)cc2)cs1 | -2.25 |
| CCCOc1cccc(NC(=O)c2cc(C)oc2C)c1 | -0.18 |
| CC(C)(C)NS(=O)(=O)c1ccc(NS(C)(=O)=O)cc1 | 0.641 |
| CCOc1ccc(N(CC)S(=O)(=O)c2cccc3nsnc23)cc1 | 9.82 |
